Measurements as given in PubChem BioAssay AID1346428 (National Center for Advancing Translational Sciences (NCATS), 2018).
“And” between values parts separate entries of the source, which are not always exact repeats. Equal values may be shown once. Among all 48,000 compounds or so, about 1,200 (2.5%) were called active. Roughly 2% stayed inconclusive and do not appear here.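 How the source made its calls: active means activation of at least 60% and not above a set upper limit (about 1 call in 100 departs from these limits); inconclusive means activation of 40% to 60%, or above that upper limit; inactive means activation under 40%.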 The list shows a part of the results.
Further: 0% is about no effect.

These molecules were tested against Probable G-protein coupled receptor 32 (Homo sapiens) (UniProt O75388) (assay: qHTS for Agonists of Human Resolvin D1 Receptor DRV1). Conditions: CHO-K1 GPR32 beta-arrestin PathHunter luminescence, 90 min; at 76.9 µM; hits give high values; zero percent set by DMSO-only wells.
UniProt O75388, sequence (O75388 whole entry, looked up, the tested form may be a part): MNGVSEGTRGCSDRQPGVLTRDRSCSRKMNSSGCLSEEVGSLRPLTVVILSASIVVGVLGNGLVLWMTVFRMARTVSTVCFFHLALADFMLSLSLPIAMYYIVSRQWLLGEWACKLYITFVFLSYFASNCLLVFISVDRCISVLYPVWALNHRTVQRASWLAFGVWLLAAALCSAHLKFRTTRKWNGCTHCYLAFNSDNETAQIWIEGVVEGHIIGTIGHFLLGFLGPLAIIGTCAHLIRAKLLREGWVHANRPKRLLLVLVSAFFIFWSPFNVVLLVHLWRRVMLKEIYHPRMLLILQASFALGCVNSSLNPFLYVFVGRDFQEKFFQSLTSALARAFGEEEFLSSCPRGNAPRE
Summary of the method: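 Agonism was scored as beta-arrestin recruitment to ProLink-fused GPR32 in stably transfected CHO-K1 cells, giving a chemiluminescent beta-Gal signal; compounds were incubated 90 min at 37 °C.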
In the case of COc1ccc(CN2C(=O)C(NC(=O)c3ccccc3OC)(C(F)(F)F)N=C2c2ccccc2)cc1 (centres undefined), the activation is reported as inactive: -9.89%.
Clc1ccc(C(c2ccccc2Cl)C(Cl)Cl)cc1 (centres undefined) was tested, and the activation was inactive: -4.3% and inactive: 5.36%.
CCOC(=O)c1c(C)sc(-c2c(-c3ccc(OC)c(F)c3)[nH]c3c2c(=O)[nH]c(=O)n3C)c1O was tested, and the activation was inactive: -26.5%.
For CC(C)Oc1ccc(CNC(=O)c2ccc3nc(Cc4ccccc4)oc3c2)cc1, the activation was inactive: -5.22%.
For CCC(CC)C(=O)Nc1ccc2nc(SCC(=O)N3c4ccccc4CC3C)sc2c1 (centres undefined), the activation was inactive: 4.89%.
In the case of Cc1ccc(-c2nn3c(=O)cc(CN4CCN(C(=O)Nc5cc(Cl)ccc5C)CC4)nc3s2)cc1, the activation is reported as inactive: -2.26%.
In the case of Cc1cc(C)cc(OCC(=O)N(Cc2ccc(C)o2)C2CCS(=O)(=O)C2)c1 (centres undefined), the activation is reported as inactive: -26.3%.
For CN(C)c1ccc(C(=C2C=CC(=[N+](C)C)C=C2)c2ccccc2)cc1, the activation was active: 95%.
In the case of COc1cc(OC)c(Nc2ncnc3onc(-c4cccc(Cl)c4)c23)cc1Cl, the activation is reported as inactive: -3.29%.
With CCC(C)NC(=O)CSc1nc2cc3c(cc2c(=O)n1CCCC(=O)NCc1ccc2c(c1)OCO2)OCO3 (centres undefined) the activation was inactive: -12.1%.
With Cc1ccc(CN(Cc2ccco2)C(=O)c2oc3c(C)c(C)ccc3c2C)cc1 the activation was inactive: 13.7%.
For COCCNC(=O)c1cc2c(Cl)nc3ccc(C)cc3c2s1, the activation was inactive: -14.1%.
With COc1cccc(N(CC(=O)N2CCC(C)CC2)S(=O)(=O)c2ccc(C)cc2)c1 the activation was inactive: -11.8%.
With COc1ccc(Cl)cc1NC(=O)c1c(NCc2ccc(C)o2)sc2c1CCCC2 the activation was inactive: -16.7%.
For C=CCc1c(C)nc2nc(SCC(=O)Nc3ccc(OCC)cc3)nn2c1C, the activation was inactive: -2.48%.
For Clc1ccccc1Cc1cn2cc(-c3ccccc3)nc2s1, the activation was inactive: 25.2%.
In the case of O=C1O[C@H]([C@@H](O)CO)C(O)=C1O, the activation is reported as inactive: -33.5%.
With CCc1ccc(NC(=O)CSc2nnc(-c3cc4occc4n3C)n2-c2ccccc2C)cc1 the activation was inactive: -32.3%.
In the case of Cn1c(=O)c2c(-c3ccccc3Br)n(CCc3ccccc3)cc2n(C)c1=O, the activation is reported as inactive: -7.47%.
For CCCCOc1ccc(C2=NC(c3ccccc3)=Nc3ccc(OC)cc3N2)cc1, the activation was inactive: -22.4%.
COc1ccccc1CNC(=O)Cn1nc(C)c2nn(-c3ccc(Cl)cc3)c(C)c2c1=O was tested, and the activation was inactive: -26.4%.
In the case of CC(C)c1ccc(Nc2ncnc3c2c(-c2ccccc2)cn3-c2ccccc2)cc1, the activation is reported as inactive: 1.05%.
Cc1cc(C)cc(NC(=O)C2(c3cccs3)CCOCC2)c1 was tested, and the activation was inactive: 23.3%.
For Clc1cccc(-n2ncc3c(N4CCN(Cc5ccccc5)CC4)ncnc32)c1, the activation was inactive: -0.66%.
For CC(C)COc1ccccc1C1CC(=O)Nc2cc3c(cc21)OCO3 (centres undefined), the activation was inactive: 19%.
In the case of COc1ccccc1NC(=O)CSc1nnc2c3ccccc3n(C)c2n1, the activation is reported as inactive: -2.82%.
For COc1cccc(CNC(=O)Cn2ccc3cc(S(=O)(=O)N4CCC(C)CC4)ccc32)c1, the activation was inactive: 27.4%.
Cc1ccccc1CNC(=O)C1CCN(c2nn3cc(-c4ccc(F)cc4)nc3s2)CC1 was tested, and the activation was inactive: -5.74%.
With NC(=O)c1cc(S(=O)(=O)N2CCN(c3ccc(F)cc3)CC2)cs1 the activation was inactive: 23.7%.
In the case of COC(=O)c1ccc(NC(C)=O)cc1OC, the activation is reported as inactive: -10.5%.
CCC(CC)c1nn2c(=O)cc(COc3ccc(NC(=O)c4ccccc4Cl)cc3)nc2s1 was tested, and the activation was inactive: 33.4%.
With Cc1cccc(CNS(=O)(=O)c2ccc3[nH]c(=O)ccc3c2)c1 the activation was inactive: 2.88%.
For CC1CCCCN1CCCNC(=O)Cn1ncc2c([nH]c3ccccc32)c1=O (centres undefined), the activation was inactive: -8.85%.
In the case of COc1ccc(Cn2c(=O)[nH]c3cc(C(=O)N4CCN(c5cc(C)ccc5C)CC4)ccc3c2=O)cc1, the activation is reported as inactive: 8.99%.
In the case of COc1ccc(C)cc1NC(=O)c1cc(S(=O)(=O)NC2CCCCCC2)ccc1F, the activation is reported as inactive: -8.92%.
In the case of COc1ccc(-c2cnnn2-c2ccc(NC(=O)c3c(F)cccc3F)cc2)cc1, the activation is reported as inactive: -25.1%.
COc1ccc(-c2cnnn2-c2ccc(NC(=O)c3ccc(S(=O)(=O)N(C)C)cc3)cc2)cc1 was tested, and the activation was inactive: -0.509%.
With CC(=O)c1cc(-c2ccccc2)n(CC(=O)NC2CCCCC2)c1C the activation was inactive: 8.5%.
CCOC(=O)c1cnc2cc(-c3ccc(Cl)cc3)nn2c1-c1ccccc1 was tested, and the activation was inactive: 41.4%.
CC(C)Cn1c(=O)c2ccccc2n2c(CCC(=O)Nc3cccc(Cl)c3)nnc12 was tested, and the activation was inactive: -12.1%.
Cc1ccc(NC(=O)Cn2c(=O)n(CCCCCC(=O)NCc3ccc(F)cc3)c(=O)c3sccc32)cc1C was tested, and the activation was inactive: 5.24%.
In the case of CCCOc1ccc(-c2nn(-c3ccccc3)cc2C2NC(=O)NC(C)=C2C(=O)OC(C)C)cc1 (centres undefined), the activation is reported as inactive: -5.41%.
For O=C1Nc2c(c(=O)[nH]c(=O)n2-c2ccccc2)C1(NS(=O)(=O)c1ccc(Cl)cc1)C(F)(F)F (centres undefined), the activation was inactive: -7.24%.
CCOc1ccccc1/C=C/c1onc(C)c1S(=O)(=O)N1CCC(C(=O)N(CC)CC)CC1 was tested, and the activation was inactive: -21.2%.
OC(CCN1CCCC1)(c1ccccc1)C1CCCCC1 (centres undefined) was tested, and the activation was inactive: 2.36%.
CCOc1ccc(Cn2nnc3c(=O)[nH]c(C4CCN(C(=O)c5ccccc5)CC4)nc32)cc1 was tested, and the activation was inactive: -20.4%.
For COc1cc(-c2nnc(SCC(=O)NCc3ccccc3Cl)o2)cc(OC)c1OC, the activation was inactive: 12%.
In the case of O=C(Cc1ccc(F)cc1)NC1CC(=O)N(c2ccccc2)C1 (centres undefined), the activation is reported as inactive: -3.93%.
For CCOc1ccc(CCNC(=O)CN2C(=O)C(CC)Oc3ccccc32)cc1OCC (centres undefined), the activation was inactive: -17.9%.
For CC(C)NCC(O)COc1cccc2[nH]ccc12 (centres undefined), the activation was inactive: 9.98% and inactive: -6.05%.
With COc1ccc(C(=O)NCc2nnc(SCC(=O)Nc3ccccc3)n2-c2ccc(F)cc2)cc1 the activation was inactive: 12.5%.
With Cn1c(=O)oc2cc(S(=O)(=O)CCC(=O)N3CCN(c4ccccc4)CC3)ccc21 the activation was inactive: -7%.
For COc1ccccc1-c1cc(C(=O)Nc2sc3c(c2C#N)CCCC3)no1, the activation was inactive: -0.65%.
COc1ccc(NC(=O)c2c(NCc3ccc(C)o3)sc3c2CCC(C)C3)c(OC)c1 (centres undefined) was tested, and the activation was inactive: -8.32%.
